About 6,400 (1.6%) of roughly 410,000 compounds were called active. The inconclusive results got no clear call from the source; some entries with a clear call stand among them for comparison. Calls follow the shape of the dose curve; as a rule, active = well fitted inhibition curve with a large enough effect; inconclusive = small, poorly fitted or top-dose-only effect; inactive = no such curve, though single readings can be large or run the other way. Where the call is inconclusive, the potency comes from a doubtful curve fit.
Target: Glucagon-like peptide 1 receptor (Homo sapiens) (UniProt P43220)
UniProt P43220, sequence (P43220 whole entry, looked up): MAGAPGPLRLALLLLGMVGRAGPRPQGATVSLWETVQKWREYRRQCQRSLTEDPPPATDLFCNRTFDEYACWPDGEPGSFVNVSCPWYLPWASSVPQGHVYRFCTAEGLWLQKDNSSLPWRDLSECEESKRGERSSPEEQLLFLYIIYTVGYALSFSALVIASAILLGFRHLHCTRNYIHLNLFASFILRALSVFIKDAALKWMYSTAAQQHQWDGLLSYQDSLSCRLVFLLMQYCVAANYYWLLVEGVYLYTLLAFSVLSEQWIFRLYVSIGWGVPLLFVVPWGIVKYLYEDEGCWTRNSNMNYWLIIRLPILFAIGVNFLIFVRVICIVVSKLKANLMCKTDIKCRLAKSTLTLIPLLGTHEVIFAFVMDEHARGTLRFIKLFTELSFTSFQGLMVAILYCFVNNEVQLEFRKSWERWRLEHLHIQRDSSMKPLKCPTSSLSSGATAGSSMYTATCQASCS
Assay: qHTS of GLP-1 Receptor Inverse Agonists (Inhibition Mode); also: nearly all actives have a fitted effect of over 55% in size
Details: HEK293 GLP-1R CRE-luciferase, luminescence, 24 h, GLP-1R form is constitutively active; activity change, negative = inhibition: at 38.3 µM (top of the series) unless noted
Procedure, shortened: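 Inverse agonists were sought by their lowering of basal cAMP reporter luciferase output in HEK293 cells stably carrying constitutively active human GLP-1R, after 24 h compound treatment.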
% is scaled to controls: 0 for no effect and ±100 for the full control effect; potency is read from the fitted curve at half-maximal effect; tags tell the direction and shape of the fitted curve.

Potency, active:
Cc1oc2c(c1C(=O)c1ccccc1)C(=O)C(=O)c1ccccc1-2 4.47 µM
CN(Cc1ccccc1)C(=O)C1CCN(Cc2cc3ccccc3n2Cc2ccccc2)CC1 10 µM
CCOC(=O)C1=C(N)Oc2cc(O)ccc2C1c1ccc([N+](=O)[O-])cc1 (centres undefined) 10 µM

Potency, inactive:
CC(C)C(=O)Nc1ccc(N2CCN(C(=O)c3cccs3)CC2)cc1
Nc1ccc(-c2c3ccc(=O)cc-3oc3cc(O)ccc23)cc1C(=O)O
CCCn1nnnc1NC(=O)COc1ccc(Br)cc1
Cc1cccc(NC(=O)c2cc(-c3cc(C)ccc3O)n[nH]2)c1
Cc1cccc(NC(=O)c2c(NC(=O)c3ccco3)sc3c2CCC(C(C)(C)C)C3)c1 (centres undefined)
Cc1c2ccccc2cc(Cc2ccccc2)[n+]1C
Cc1cccc(C(=O)Nc2nnc(SCc3cc(=O)n4cccc(C)c4n3)s2)c1
C[C@H](NC(=O)[C@@H]1CCCN1C(=O)[C@@H]1CCCN1C(=O)OC(C)(C)C)c1ccccc1
CC1Cc2cc(-c3csc(N)n3)ccc2O1 (centres undefined)
CC(=O)c1cccc(S(=O)(=O)NC2CCSc3ccccc32)c1 (centres undefined)
COc1cc(/C=N/N2CCN(Cc3ccc(C)cc3)CC2)cc(OC)c1O
O=C(/C=C/c1ccc(F)cc1)NC(Cc1c[nH]c2ccccc12)C(=O)O (centres undefined)
OC[C@@H]1CN(Cc2ccc(F)cc2)C[C@H](n2cnc3c(NC4CCCC4)ncnc32)O1
Cc1ccc(/C=C/c2onc(C)c2S(=O)(=O)N2CCC(C(=O)NCc3ccc(N(C)C)cc3)CC2)cc1
CCc1cc(-c2nnn(CCC3COCCO3)c2CC)ccc1-c1cn(Cc2ccc3ccccc3c2)nn1 (centres undefined)
CCOc1ccccc1NC(=O)CCNS(=O)(=O)c1ccc2c(c1)CCN2C(=O)C1CC1

Potency, inconclusive:
Cc1cc(C(=O)N2CCCC(N3CCN(c4cccc(C(F)(F)F)c4)CC3)C2)no1 (centres undefined) 14.1 µM [inhibitor, partial curve, poor fit]
COc1ccc(CCCNC(=O)C2Cc3c(-c4ccc(NC(C)=O)cc4)ccnc3O2)cc1 (centres undefined) 28.2 µM [inhibitor, single point]
CC1(c2ccc(OC(F)F)cc2)NC(=O)N(CC(=O)NCCC2=CCCCC2)C1=O (centres undefined) 28.2 µM [inhibitor, single point]
CCCCOCCCN1CC(=O)N2C(C)c3[nH]c4ccccc4c3C[C@H]2C1=O (some centres undefined) 3.98 µM [inhibitor, partial curve, poor fit]
CCCN(CCC)S(=O)(=O)c1cccc(C(=O)Nc2ccc3c(c2)OCO3)c1 10 µM [inhibitor, partial curve, poor fit]
Cc1ccc2cc(NC(=O)c3ccccc3)ccc2n1 20 µM [inhibitor, single point]
Cc1cccc(N2CCN(C(=S)c3ccc(-c4ccccc4[N+](=O)[O-])o3)CC2)c1 20 µM [inhibitor, partial curve, poor fit]
O=C(NCc1ccc(Cl)cc1Cl)c1cccc(N2CCCS2(=O)=O)c1 28.2 µM [inhibitor, single point]
CN(/N=C/Cc1nnnn1-c1ccc(Cl)cc1)c1ccccc1 28.2 µM [inhibitor, single point]
COc1cccc(OCc2cc(C(=O)N(C)CCOc3ccc(C)cc3)no2)c1 11.2 µM [inhibitor, single point]
CCOC(=O)C(C)On1c(-c2ccc(Cl)cc2)nc2ccc([N+](=O)[O-])cc21 (centres undefined) 15.8 µM [inhibitor, single point]
CCn1cc2nc(SCc3cccc(C(F)(F)F)c3)n(Cc3ccc(C)cc3)c(=O)c2n1 11.2 µM [inhibitor, partial curve, poor fit]
C=CCn1c(SCCC)nc2sc3c(c2c1=O)CCc1ccccc1-3 31.6 µM [inhibitor, partial curve, poor fit]
CC(C)Oc1ccc(C(=O)OC(C)C(=O)NC2CCCCC2C)cc1 (centres undefined) 6.31 µM [inhibitor, partial curve, poor fit]
Cc1ccccc1NC(=O)NCC1CCN(Cc2cccc(Cl)c2)CC1 31.6 µM [inhibitor, single point]
O[C@H]1C[C@H](c2ccc(Cl)cc2)N(Cc2cccs2)C[C@@H]1n1cc(C2CC2)nn1 12.6 µM [inhibitor, partial curve, poor fit]
COc1ccc(O)c(/C=N/NC(=O)CCC(=O)Nc2ccc(C)cc2)c1 28.2 µM [inhibitor, single point]
O=C(Cc1ccc(Cl)cc1)NCC(c1cccs1)S(=O)(=O)c1ccc(Cl)cc1 (centres undefined) 11.2 µM [inhibitor, partial curve]
CCN(CC)S(=O)(=O)c1ccc(C)c(NC(=O)CNCc2ccccc2OC)c1 22.4 µM [inhibitor, partial curve, poor fit]
O=C(c1ccc(F)cc1)C1CCN(C(=O)Nc2ccccc2Cl)CC1 8.91 µM [inhibitor, partial curve]
O=C(Nc1cccc(C(=O)N2CCCCC2)c1)c1ccc(Cl)cc1 25.1 µM [inhibitor, partial curve, poor fit]
CN(C)c1ccc(N=C/C=C2/N(C)c3ccccc3C2(C)C)cc1 10 µM [inhibitor, single point]
Cc1ccc(N(CC(=O)Nc2ccc(C)cc2C)S(=O)(=O)N2CCCC2)cc1 7.94 µM [inhibitor, partial curve, poor fit]
O=C1C(Cc2ccc(Br)cc2)SC(=Nc2ccccc2)N1c1ccccc1 (centres undefined) 12.6 µM [inhibitor, single point]
CCCCn1nc2cc(C(=O)NCC34CC5CC(CC(C5)C3)C4)ccc2c1OCC 11.2 µM [inhibitor, partial curve, poor fit]
CCCCCCCc1n[nH]c(=S)n1Cc1ccccc1 12.6 µM [inhibitor, single point]
CCCCNC(=O)C1C(c2ccc(C(F)(F)F)cc2)=Nc2ccccc2N1C(=O)c1ccc2nc(C)[nH]c2c1 (centres undefined) 12.6 µM [inhibitor, single point]
Cc1ccc(S(=O)(=O)N(CC(=O)NCc2ccco2)c2ccccc2C)cc1 31.6 µM [inhibitor, partial curve, poor fit]
CCC(Sc1nnc(-c2ccc(OC)cc2)c(-c2ccc(OC)cc2)n1)C(=O)Nc1cccc(OC)c1 (centres undefined) 2 µM [inhibitor, full curve, poor fit]
CCOc1cc(/C=N/NC(=O)Cn2nc([N+](=O)[O-])cc2C)cc(Br)c1OCc1ccccc1F 31.6 µM [inhibitor, single point]
Cc1ccc(OCCCC(=O)Nc2sc3c(c2C(N)=O)CCCC3)cc1 14.1 µM [inhibitor, partial curve, poor fit]
COc1ccc(N2CCN(Cc3nc(-c4ccccc4)no3)CC2)cc1 20 µM [inhibitor, single point]
Cc1ccccc1-c1cccc([C@@H]2C[C@H]3CN(Cc4cccnc4)C(=O)[C@]34CCCN24)c1 31.6 µM [inhibitor, partial curve, poor fit]
CC(C)c1ccc(NC(=O)C2C3C=CC(CC3)C2C(=O)O)cc1 (centres undefined) 12.6 µM [inhibitor, single point]
Cc1cc(NC(=O)C2CCN(S(=O)(=O)c3cnc[nH]3)CC2)ccc1Br 28.2 µM [inhibitor, single point]
COc1ccc(N(CC(O)Cn2cnc3ccccc32)S(=O)(=O)c2ccc(C)cc2)cc1 (centres undefined) 5.62 µM [inhibitor, partial curve]
CC(C)(C)NS(=O)(=O)c1ccc(C(=O)Nc2ccc3c(c2)OCO3)cc1 12.6 µM [inhibitor, single point]
CCOC(=O)C1CCCN(CCSc2ccc(C)cc2)C1 (centres undefined) 2.82 µM [inhibitor, single point]
CCOC(=O)c1c(C)sc(Sc2ccc(Cl)cc2[N+](=O)[O-])c1OC 11.2 µM [inhibitor, partial curve, poor fit]
Cc1cccc(C(=O)NN/C=C/C(=O)c2ccccc2)c1 10 µM [inhibitor, partial curve, poor fit]
CCN(CC)CC(=O)Nc1c(C)cc(C(C)(C)C)cc1C 12.6 µM [inhibitor, partial curve, poor fit]
CCOC(=O)c1ccc(N2C(=O)c3n[nH]c(C)c3C2c2ccc(OC)cc2OC)cc1 (centres undefined) 20 µM [inhibitor, single point]
Cc1ccc(NC(=S)N(CCN2CCCCC2)Cc2ccco2)cc1Cl 10 µM [inhibitor, partial curve, poor fit]
Cc1cccc(N/N=C(\C(N)=O)C2=NC(C)(C)Cc3ccccc32)c1 28.2 µM [inhibitor, single point]

Activity change, negative = inhibition, inconclusive:
O=C(CSc1nnc2c(n1)[nH]c1ccc(F)cc12)N1CCOCC1 -30.5% [inhibitor] [at 0.307 µM]
